{
  "source": "the supplement of paper PMC12217912",
  "parents": {"B1": {"name": "TEV protease; numbered along this chain (parent)", "chain": "MGESLFKGPRDYNPISSSICHLTNESDGHTTSLYGIGFGPFIITNKHLFRRNNGTLVVQSLHGVFKVKDTTTLQQHLVDGRDMIIIRMPKDFPPFPQKLKFREPQREERICLVTTNFQTKSMSSMVSDTSCTFPSGDGIFWKHWIQTKDGQCGSPLVSTRDGFIVGIHSASNFTNTNNYFTSVPKNFMELLTNQEAQQWVSGWRLNADSVLWGGHKVFMVKPEEPFQPVKEATQL"}},
  "note": "The list shows a part of the results. Sequences were assembled here from the parent chain. Inactive controls read about 0.05.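 Also: Bxb1 expression induced with 0.2% (w/v) L-rhamnose at OD600 near 0.5, cultures sampled hourly, flipped fraction per protease–substrate barcode pair counted by paired-end Illumina sequencing.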",
  "data": [
    {"variants_of": "B1", "experiment": "raw area under fraction-flipped curve 0-4 h after induction (AUC4h, not background-subtracted), DNA-recorder readout of cleavage of the substrate (dimensionless); higher = more cleavage of the substrate by the protease variant", "conditions": "temperature: 34 °C; time window: 0-4 h after rhamnose induction", "procedure": "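In vivo DNA recorder in E. coli TOP10(DE3) ΔrhaA at 34 °C. Each TEVp single-site mutant (parent TEVp 0) is paired with a single-site variant of the 7-mer TEVs (canonical ENLYFQ|S). The substrate sits between flexible linkers in a Bxb1-sfGFP-TEVs-SsrA fusion, so cleavage stabilises Bxb1 and speeds flipping of a recombination array, read by NGS. The value is the raw area under the fraction-flipped curve over 0-4 h after rhamnose induction (AUC4h), with ≥20 reads per time point. It is not background-subtracted; inactive controls average about 0.047.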", "values": [
      {"variant": "MGESLFKGPRDYNPISSSICHLTNESDGHTTSLYGIGFGPFIITNKHLFRRNNGTLVVQSLHGVFKVKDTTTLQQHLVDGVDMIIIRMPKDFPPFPQKLKFREPQREERICLVTTNFQTKSMSSMVSDTSCTFPSGDGIFWKHWIQTKDGQCGSPLVSTRDGFIVGIHSASNFTNTNNYFTSVPKNFMELLTNQEAQQWVSGWRLNADSVLWGGHKVFMVKPEEPFQPVKEATQL", "note": "[R81V]", "area with substrate ENDYFQS": 0.07, "area with substrate ENHYFQS": 0.0692, "area with substrate ENKYFQS": 0.0479, "area with substrate ENMYFQS": 0.083, "area with substrate ENQYFQS": 0.0435, "area with substrate ENRYFQS": 0.0768, "area with substrate ENSYFQS": 0.0635},
      {"variant": "MGESLFKGPRDYNPISSSICHLTNESDGHTTSLYGIGFGPFIITNKHLFRRNNGTLVVQSLHGVFQVKDTTTLQQHLVDGRDMIIIRMPKDFPPFPQKLKFREPQREERICLVTTNFQTKSMSSMVSDTSCTFPSGDGIFWKHWIQTKDGQCGSPLVSTRDGFIVGIHSASNFTNTNNYFTSVPKNFMELLTNQEAQQWVSGWRLNADSVLWGGHKVFMVKPEEPFQPVKEATQL", "note": "[K66Q]", "area with substrate ENDYFQS": 0.0353, "area with substrate ENIYFQS": 0.113, "area with substrate ENSYFQS": 0.0678, "area with substrate ENTYFQS": 0.0452, "area with substrate ENWYFQS": 0.0126},
      {"variant": "MGESLFKGPRDYNPISSSICHLTNESDGHTTSLYGIGFGPFIITNKHLFRRNNGTLVVQSLHGVFKVKDTTTLQQHLVDGRDMIIIRMPKDFPPFPQKLKFREPQREERICLVTTNFQTKSMSSMVSDTSCTFPSGDGIFWKHWIQTKDGQCGSPLVSTRDGNIVGIHSASNFTNTNNYFTSVPKNFMELLTNQEAQQWVSGWRLNADSVLWGGHKVFMVKPEEPFQPVKEATQL", "note": "[F163N]", "area with substrate ENDYFQS": 0.069, "area with substrate ENEYFQS": 0.0867, "area with substrate ENRYFQS": 0.077, "area with substrate ENSYFQS": 0.0699, "area with substrate ENTYFQS": 0.097, "area with substrate ENWYFQS": 0.0577},
      {"variant": "MGESLFKGPRDYNPISSSICHLTNESDGHTTSLYGIGFGPFIITNKHLFRRNNGTLVVQSLHGVFKVKDTTTLQQHLVDGRDMIIIRMPKDFPPFPQKLKFREPQREERICLVTTNFQTKSMSSMVSDTSCTFPSGDGIFWKHWIQTKDGQCGNPLVSTRDGFIVGIHSASNFTNTNNYFTSVPKNFMELLTNQEAQQWVSGWRLNADSVLWGGHKVFMVKPEEPFQPVKEATQL", "note": "[S154N]", "area with substrate ENDYFQS": 0.0488, "area with substrate ENEYFQS": 0.0457, "area with substrate ENFYFQS": 0.0587, "area with substrate ENQYFQS": 0.0925},
      {"variant": "MGESLFKGPRDYNPISSSICHLTNESDGHTTSLYGIGFGPFIITNKHLFRRNNGTLVVQGLHGVFKVKDTTTLQQHLVDGRDMIIIRMPKDFPPFPQKLKFREPQREERICLVTTNFQTKSMSSMVSDTSCTFPSGDGIFWKHWIQTKDGQCGSPLVSTRDGFIVGIHSASNFTNTNNYFTSVPKNFMELLTNQEAQQWVSGWRLNADSVLWGGHKVFMVKPEEPFQPVKEATQL", "note": "[S60G]", "area with substrate ENDYFQS": 0.0739, "area with substrate ENEYFQS": 0.0486, "area with substrate ENIYFQS": 0.107, "area with substrate ENNYFQS": 0.0566, "area with substrate ENQYFQS": 0.0644, "area with substrate ENRYFQS": 0.0705},
      {"variant": "MGESLFKGPRDYNPISSSICHLTNESDGHTTSLYGIGFGPFIITNKHLFRRNNGTLVVQSLHGVFKVKDTTTLQQHLVDGRDMIIIRMPKDFPPFPQKLKFREPQREGRICLVTTNFQTKSMSSMVSDTSCTFPSGDGIFWKHWIQTKDGQCGSPLVSTRDGFIVGIHSASNFTNTNNYFTSVPKNFMELLTNQEAQQWVSGWRLNADSVLWGGHKVFMVKPEEPFQPVKEATQL", "note": "[E108G]", "area with substrate ENDYFQS": 0.062, "area with substrate ENEYFQS": 0.0581, "area with substrate ENGYFQS": 0.0425, "area with substrate ENQYFQS": 0.0435, "area with substrate ENRYFQS": 0.083, "area with substrate ENSYFQS": 0.0548, "area with substrate ENTYFQS": 0.0636, "area with substrate ENVYFQS": 0.074},
      {"variant": "MGESLFKGPRDYNPISSSICHLTNESDGHTTSLYGIGFGPFIITNKHLFRRNNGTLVVQSLHGVFKVKDTTTLQQHLVDGRDMIIIRMPKDFPPFPQKLKHREPQREERICLVTTNFQTKSMSSMVSDTSCTFPSGDGIFWKHWIQTKDGQCGSPLVSTRDGFIVGIHSASNFTNTNNYFTSVPKNFMELLTNQEAQQWVSGWRLNADSVLWGGHKVFMVKPEEPFQPVKEATQL", "note": "[F101H]", "area with substrate ENDYFQS": 0.0571, "area with substrate ENEYFQS": 0.0511, "area with substrate ENFYFQS": 0.0615, "area with substrate ENKYFQS": 0.0673, "area with substrate ENMYFQS": 0.0441, "area with substrate ENNYFQS": 0.0609, "area with substrate ENSYFQS": 0.0501, "area with substrate ENTYFQS": 0.0449, "area with substrate ENWYFQS": 0.0684},
      {"variant": "MGESLFKGPRDYNPISSSICHLTNESDGHTTSLYGIGFGPFIITNKHLFRRNNGTLVVQSLHGVFKVKDTTTLQQHLVDGRDMIIIRMPKDFPPFPQKLKFREPQREERICLVTKNFQTKSMSSMVSDTSCTFPSGDGIFWKHWIQTKDGQCGSPLVSTRDGFIVGIHSASNFTNTNNYFTSVPKNFMELLTNQEAQQWVSGWRLNADSVLWGGHKVFMVKPEEPFQPVKEATQL", "note": "[T115K]", "area with substrate ENDYFQS": 0.0477, "area with substrate ENFYFQS": 0.0579, "area with substrate ENHYFQS": 0.0702, "area with substrate ENIYFQS": 0.161, "area with substrate ENQYFQS": 0.0626, "area with substrate ENRYFQS": 0.0525, "area with substrate ENSYFQS": 0.0626, "area with substrate ENTYFQS": 0.0643, "area with substrate ENVYFQS": 0.0687},
      {"variant": "MGESLFKGPRDYNPISSSICHLTNESDGHTTSLYGIGFGPFIITNKHLFRRNNGTLVVQSLHGVFKVKDTTTLQQHLVDGRDMIIIRMPKDFPPFPQKLKFREPQREERICLVTTNFQTKSMSSMVSDTSCTFPSGDAIFWKHWIQTKDGQCGSPLVSTRDGFIVGIHSASNFTNTNNYFTSVPKNFMELLTNQEAQQWVSGWRLNADSVLWGGHKVFMVKPEEPFQPVKEATQL", "note": "[G138A]", "area with substrate ENDYFQS": 0.0507, "area with substrate ENRYFQS": 0.0454},
      {"variant": "MGESLFKGPRDYNPISSSICHLTNESDGHTTSLYGIGFGPFIITNKHLFRRNNGTLVVQSLHGVFKVKDTTTLQQHLVDGRDMIIIRMPKDFPPFPQKLKFREPQREERICLVTTNFQTKSMSSMVSDTSCTFPHGDGIFWKHWIQTKDGQCGSPLVSTRDGFIVGIHSASNFTNTNNYFTSVPKNFMELLTNQEAQQWVSGWRLNADSVLWGGHKVFMVKPEEPFQPVKEATQL", "note": "[S135H]", "area with substrate ENDYFQS": 0.0572, "area with substrate ENEYFQS": 0.0719, "area with substrate ENFYFQS": 0.0616, "area with substrate ENGYFQS": 0.0593, "area with substrate ENIYFQS": 0.0573, "area with substrate ENMYFQS": 0.0611, "area with substrate ENNYFQS": 0.0778, "area with substrate ENQYFQS": 0.0687, "area with substrate ENTYFQS": 0.0471, "area with substrate ENVYFQS": 0.0369}
    ]}
  ]
}
